The subject of data set [1] is GL261. The data set is described as follows: cell viability relative to siNT1 (ATP content); H4 human neuroglioma and GL261 mouse glioma; higher = less toxic. The following applies: siRNA concentration 25 nM; 96 h; mouse.
For data set [2], the system named is H4. The data set is described as above. The following applies: siRNA concentration 10 nM; 96 h; human.

Shown are siRNA guide strands that differ only in the seed, positions 2 to 7.
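Also: cells reverse transfected with siRNA duplexes via lipid reagent, ATP read by luminescence, triplicate wells, values scaled to mean viability with non-targeting control siNT1.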

As for UGGUGUAACAUGUAAACCA, the cell viability in data set [1] came out at 45.8%; in data set [2], 64.6%.

Take UGGUGUCACAUGUAAACCA: the cell viability worked out at 20.5% in data set [1] and 38% in data set [2].

Consider UGGUGUGACAUGUAAACCA, for which the cell viability in data set [1] came to 37.2%; in data set [2], 64.2%.

Consider UGGUGUUACAUGUAAACCA, for which the cell viability in data set [1] came out at 35.4%; in data set [2], 36%.

In the case of UGGUUAAACAUGUAAACCA, the cell viability in data set [1] turned out to be 79.1%; in data set [2] it was 121%.

UGGUUACACAUGUAAACCA: the cell viability in data set [1] worked out at 71.7%; in data set [2] it was 114%.

Regarding UGGUUAGACAUGUAAACCA, the cell viability in data set [1] is 39.8%; in data set [2], 89.5%.

As for UGGUUAUACAUGUAAACCA, the cell viability was determined as 76.5% in data set [1] and 97% in data set [2].

Turning to UGGUUCAACAUGUAAACCA, the cell viability was 40.5% in data set [1] and 49.4% in data set [2].

For UGGUUCCACAUGUAAACCA, the figures for the cell viability in data set [1] and in data set [2] were 12.2% and 21.1%, respectively.

In the case of UGGUUCGACAUGUAAACCA, the results for the cell viability in data set [1] and in data set [2] were 34.4% and 79.9%, respectively.

On to UGGUUCUACAUGUAAACCA, for which the cell viability was 38.3% in data set [1] and 45.4% in data set [2].

In the case of UGGUUGAACAUGUAAACCA, the cell viability stood at 40.6% in data set [1] and 77.3% in data set [2].

As to UGGUUGCACAUGUAAACCA, the cell viability turned out to be 22.2% in data set [1] and 35.4% in data set [2].

As to UGGUUGGACAUGUAAACCA, the cell viability in data set [1] amounted to 19.2%; in data set [2] it was 25.9%.

With UGGUUGUACAUGUAAACCA, the cell viability worked out at 63.6% in data set [1] and 99.6% in data set [2].

UGGUUUAACAUGUAAACCA: the results for the cell viability in data set [1] and in data set [2] were 90.6% and 121%, respectively.

With UGGUUUCACAUGUAAACCA, the cell viability in data set [1] amounted to 72.4%; in data set [2] it was 95.9%.

Regarding UGGUUUGACAUGUAAACCA, the cell viability in data set [1] is 68.9%; in data set [2] it was 101%.

Regarding UGGUUUUACAUGUAAACCA, the cell viability in data set [1] turned out to be 73.2%; in data set [2] it was 119%.

For UGUAAAAACAUGUAAACCA, the cell viability in data set [1] was found to be 69.8%; in data set [2] it was 94%.

UGUAAACACAUGUAAACCA: the figures for the cell viability in data set [1] and in data set [2] were 72% and 86.4%, respectively.

With UGUAAAGACAUGUAAACCA, the cell viability in data set [1] came out at 67.8%; in data set [2] it was 84.6%.

UGUAAAUACAUGUAAACCA: the cell viability in data set [1] was 56.4%; in data set [2], 100%.

Consider UGUAACAACAUGUAAACCA, for which the cell viability turned out to be 62.2% in data set [1] and 101% in data set [2].

On to UGUAACCACAUGUAAACCA, for which the values for the cell viability in data set [1] and in data set [2] were 26.4% and 41.3%, respectively.

For UGUAACGACAUGUAAACCA, the cell viability is 73.2% in data set [1] and 83% in data set [2].

Regarding UGUAACUACAUGUAAACCA, the figures for the cell viability in data set [1] and in data set [2] were 43.5% and 93.6%, respectively.

UGUAAGAACAUGUAAACCA: the cell viability is 57.4% in data set [1] and 70% in data set [2].

For UGUAAGCACAUGUAAACCA, the results for the cell viability in data set [1] and in data set [2] were 41.5% and 47.9%, respectively.

Regarding UGUAAGGACAUGUAAACCA, the results for the cell viability in data set [1] and in data set [2] were 22.7% and 52.2%, respectively.

Regarding UGUAAGUACAUGUAAACCA, the cell viability amounted to 38.8% in data set [1] and 63.2% in data set [2].

On to UGUAAUAACAUGUAAACCA, for which the values for the cell viability in data set [1] and in data set [2] were 64.3% and 79.3%, respectively.

In the case of UGUAAUCACAUGUAAACCA, the cell viability in data set [1] was 31%; in data set [2] it was 38.8%.

With UGUAAUGACAUGUAAACCA, the cell viability in data set [1] came out at 45.6%; in data set [2], 74.6%.

As for UGUAAUUACAUGUAAACCA, the figures for the cell viability in data set [1] and in data set [2] were 50.4% and 55.4%, respectively.

In the case of UGUACAAACAUGUAAACCA, the cell viability in data set [1] came to 60.7%; in data set [2], 90.8%.

Take UGUACACACAUGUAAACCA: the cell viability in data set [1] came to 41.1%; in data set [2], 59.9%.

With UGUACAGACAUGUAAACCA, the values for the cell viability in data set [1] and in data set [2] were 58.7% and 102%, respectively.

As for UGUACAUACAUGUAAACCA, the cell viability in data set [1] came to 58.8%; in data set [2] it was 113%.

For UGUACCAACAUGUAAACCA, the cell viability stood at 52.6% in data set [1] and 87.9% in data set [2].

UGUACCCACAUGUAAACCA: the cell viability in data set [1] was 13.3%; in data set [2], 33.5%.

As for UGUACCGACAUGUAAACCA, the cell viability was determined as 54.5% in data set [1] and 90.5% in data set [2].

As for UGUACCUACAUGUAAACCA, the figures for the cell viability in data set [1] and in data set [2] were 26.5% and 30.6%, respectively.

Consider UGUACGAACAUGUAAACCA, for which the cell viability in data set [1] came to 68.3%; in data set [2], 101%.

For UGUACGCACAUGUAAACCA, the cell viability in data set [1] came to 60.5%; in data set [2], 69.5%.

In the case of UGUACGGACAUGUAAACCA, the cell viability in data set [1] was determined as 64%; in data set [2], 64.8%.

Regarding UGUACGUACAUGUAAACCA, the cell viability is 60.3% in data set [1] and 108% in data set [2].

Consider UGUACUAACAUGUAAACCA, for which the cell viability in data set [1] was found to be 70.1%; in data set [2], 101%.

Take UGUACUCACAUGUAAACCA: the results for the cell viability in data set [1] and in data set [2] were 45.6% and 64.8%, respectively.

With UGUACUGACAUGUAAACCA, the cell viability in data set [1] is 63.9%; in data set [2] it was 79.1%.

In the case of UGUACUUACAUGUAAACCA, the cell viability in data set [1] turned out to be 37.7%; in data set [2] it was 75%.

In the case of UGUAGAAACAUGUAAACCA, the cell viability in data set [1] is 78.9%; in data set [2], 84.5%.

As to UGUAGACACAUGUAAACCA, the cell viability in data set [1] is 34%; in data set [2], 60.9%.

Turning to UGUAGAGACAUGUAAACCA, the cell viability in data set [1] turned out to be 61.8%; in data set [2] it was 93.9%.

In the case of UGUAGAUACAUGUAAACCA, the cell viability was 38.1% in data set [1] and 70.6% in data set [2].

As for UGUAGCAACAUGUAAACCA, the cell viability in data set [1] worked out at 48.7%; in data set [2], 92.5%.

Turning to UGUAGCCACAUGUAAACCA, the cell viability in data set [1] was determined as 9.03%; in data set [2], 13.7%.

Consider UGUAGCGACAUGUAAACCA, for which the cell viability came out at 49.5% in data set [1] and 77.1% in data set [2].

UGUAGCUACAUGUAAACCA: the values for the cell viability in data set [1] and in data set [2] were 24.5% and 38.9%, respectively.

On to UGUAGGAACAUGUAAACCA, for which the cell viability in data set [1] was 39.9%; in data set [2], 83.7%.

With UGUAGGCACAUGUAAACCA, the results for the cell viability in data set [1] and in data set [2] were 9.17% and 17.7%, respectively.

In the case of UGUAGGGACAUGUAAACCA, the cell viability in data set [1] was determined as 19.4%; in data set [2], 51.2%.

For UGUAGGUACAUGUAAACCA, the cell viability in data set [1] worked out at 15.2%; in data set [2], 32.6%.

For UGUAGUAACAUGUAAACCA, the cell viability was found to be 52% in data set [1] and 71.9% in data set [2].

What is called cell viability is a read-out of living cells in per cent, often relative to untreated cells.

Values taken from the supplement of paper PMC8948288.
